We go through 33 cell lines from the supplement of paper PMC4967469.

pIC50: −log10 of the molar value. Lines with a small IC50 respond at low doses; fits outside the tested doses are given as limits. For AUC the same curve is integrated over the 256-fold range of doses and scaled to a fraction; it is 1 without any effect and falls as sensitivity rises. For some of these results: A top dose marked as inferred was derived from the fitted curves, not read from the paper. For some of these results: An entry number marks a drug with two screens in the source, which often give different values.

Compound in the first assay: O=C(c1cc(Cc2n[nH]c(=O)c3ccccc23)ccc1F)N1CCN(C(=O)C2CC2)CC1 [Olaparib]
The experiment in a line: Viability of human cancer cell lines after 72 h of drug (GDSC screen). The conditions noted are these: top dose 10 µM; screen: GDSC drug entry 1495. The procedure: (§1)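 Human cancer cell lines in 384-well plates, medium with 10% serum, drug for 72 h over a 256-fold dose range (nine 2-fold or five 4-fold steps up to the top dose). Adherent lines were fixed and stained with the nucleic acid dye Syto60, suspension lines read with resazurin; signal relative to control wells, capped at 0 and 100%. One two-parameter sigmoid per drug and line, fitted in a mixed model over all curves with the slope shared within a line.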
A word on the pIC50: it is −log10 of the IC50, conventionally taken in molar units. Take CHSA0108 (chondrosarcoma, adherent): the AUC came out at 0.955 and the pIC50 is under 5.00.

Compound in a further assay: CC(C)=CC[C@@H](O)C1=CC(=O)c2c(O)ccc(O)c2C1=O [Shikonin]
The assay is described as above. The conditions noted are these: top dose 16 µM; top dose inferred. As for the experimental part:
as §1
With 22RV1 (prostate, adherent), the AUC is 0.669 and the pIC50 was 5.48.

As to 639-V (bladder, adherent), the AUC came out at 0.266 and the negative-log IC50 (pIC50) is 6.61.

Turning to 8305C (thyroid, adherent), the AUC worked out at 0.405 and the pIC50 is 6.30.

Take 8505C (thyroid, adherent): the AUC came out at 0.714 and the pIC50 was 5.38.

As for “A427 (non-small cell lung carcinoma, adherent)”, the AUC came to 0.199 and the pIC50 was 6.90.

Regarding AU565 (breast, adherent), the AUC came out at 0.453 and the negative logarithm of the IC50 (pIC50) was 6.13.

Take AsPC-1 (pancreas, adherent): the AUC turned out to be 0.507 and the pIC50 is 5.97.

Turning to BHT-101 (thyroid, adherent), the AUC is 0.576 and the pIC50 is 5.79.

For the cell line BICR10 (head and neck, adherent), the AUC is 0.715 and the negative-log IC50 (pIC50) was 5.35.

As to BT-20 (breast, adherent), the AUC was 0.611 and the negative logarithm of the IC50 (pIC50) is 5.66.

Take BT-483 (breast, adherent): the AUC stood at 0.74 and the pIC50 was 5.04.

Regarding C32 (melanoma, adherent), the AUC came to 0.652 and the pIC50 was 5.56.

As for C-4-I (cervix, adherent), the AUC worked out at 0.555 and the pIC50 is 5.84.

Take “CAL-12T (non-small cell lung carcinoma, adherent)”: the AUC was 0.617 and the pIC50 is 5.66.

With CAL-27 (head and neck, adherent), the AUC is 0.751 and the pIC50 is 5.27.

As to CAL-33 (head and neck, adherent), the AUC came to 0.544 and the pIC50 is 5.88.

As for CAL-62 (thyroid, adherent), the AUC turned out to be 0.481 and the negative logarithm of the IC50 (pIC50) is 6.05.

For the cell line CAPAN-1 (pancreas, adherent), the AUC was 0.474 and the pIC50 is 6.07.

As to CCK-81 (large intestine, adherent), the AUC stood at 0.764 and the pIC50 is 5.26.

For the cell line CHP-212 (neuroblastoma, adherent), the AUC amounted to 0.554 and the pIC50 is 5.86.

Turning to CHSA0108 (chondrosarcoma, adherent), the AUC was 0.519 and the pIC50 is 5.94.

DoTc2-4510 (cervix, adherent): the AUC turned out to be 0.29 and the negative logarithm of the IC50 (pIC50) is 6.58.

On to HCC1395 (breast, adherent), for which the AUC came out at 0.714 and the negative-log IC50 (pIC50) is 5.34.

Take HCC1937 (breast, adherent): the AUC was 0.527 and the pIC50 was 5.92.

HCT-15 (large intestine, adherent): the AUC came out at 0.297 and the pIC50 is 6.59.

As for HCT-116 (large intestine, adherent), the AUC was determined as 0.374 and the pIC50 is 6.34.

Turning to HT-29 (large intestine, adherent), the AUC is 0.431.

On to LoVo (large intestine, adherent), for which the AUC turned out to be 0.55 and the negative-log IC50 (pIC50) was 5.86.

For the cell line MHH-ES-1 (Ewing sarcoma, adherent), the AUC was 0.425 and the pIC50 is 6.20.

“NCI-H460 (large cell lung carcinoma, adherent)”: the AUC was found to be 0.574 and the negative-log IC50 (pIC50) was 5.81.

As for “NCI-H1568 (lung adenocarcinoma, adherent)”, the AUC is 0.335 and the negative-log IC50 (pIC50) was 6.51.

Take “NCI-H1792 (lung adenocarcinoma, adherent)”: the AUC was found to be 0.819 and the pIC50 was 5.10.

In the case of OVCAR-8 (ovary, adherent), the AUC was determined as 0.357 and the pIC50 is 6.37.

Compound in the next assay: Cc1cccc(-c2[nH]c(C(C)(C)C)nc2-c2ccc3nccnc3c2)n1 [SB-525334]
Described as above. The conditions noted are these: top dose 20 µM; top dose inferred. As for the experimental part:
as §1
22RV1 (prostate, adherent): the AUC was 0.982 and the pIC50 was under 4.70.

As to 639-V (bladder, adherent), the AUC is 0.966 and the pIC50 is under 4.70.

8305C (thyroid, adherent): the AUC is 0.982 and the negative logarithm of the IC50 (pIC50) is under 4.70.

Turning to 8505C (thyroid, adherent), the AUC amounted to 0.898 and the pIC50 is under 4.70.

Consider “A427 (non-small cell lung carcinoma, adherent)”, for which the AUC worked out at 0.836 and the pIC50 is 4.87.

Regarding AU565 (breast, adherent), the AUC turned out to be 0.888 and the pIC50 was under 4.70.

As for AsPC-1 (pancreas, adherent), the AUC came out at 0.871 and the pIC50 was under 4.70.

With BHT-101 (thyroid, adherent), the AUC is 0.984 and the pIC50 was under 4.70.

BICR10 (head and neck, adherent): the AUC came to 0.984 and the pIC50 was under 4.70.

Consider BT-20 (breast, adherent), for which the AUC amounted to 0.977 and the pIC50 was under 4.70.

Turning to BT-483 (breast, adherent), the AUC is 0.74 and the negative-log IC50 (pIC50) is 4.94.

For C32 (melanoma, adherent), the AUC stood at 0.96 and the pIC50 is under 4.70.

Turning to C-4-I (cervix, adherent), the AUC worked out at 0.972 and the pIC50 was under 4.70.

For the cell line “CAL-12T (non-small cell lung carcinoma, adherent)”, the AUC was 0.973 and the pIC50 was under 4.70.

Consider CAL-27 (head and neck, adherent), for which the AUC came to 0.982 and the negative-log IC50 (pIC50) is under 4.70.

Turning to CAL-33 (head and neck, adherent), the AUC amounted to 0.961 and the negative-log IC50 (pIC50) is under 4.70.

In the case of CAL-62 (thyroid, adherent), the AUC came out at 0.988 and the pIC50 was under 4.70.

As to CAPAN-1 (pancreas, adherent), the AUC was 0.974 and the pIC50 is under 4.70.

For the cell line CCK-81 (large intestine, adherent), the AUC was found to be 0.975 and the negative-log IC50 (pIC50) was under 4.70.

Consider CHP-212 (neuroblastoma, adherent), for which the AUC was 0.984 and the negative-log IC50 (pIC50) was under 4.70.

Take CHSA0108 (chondrosarcoma, adherent): the AUC amounted to 0.805 and the negative-log IC50 (pIC50) is 4.92.

For DoTc2-4510 (cervix, adherent), the AUC turned out to be 0.979 and the pIC50 was under 4.70.

Consider HCC1395 (breast, adherent), for which the AUC turned out to be 0.979 and the negative-log IC50 (pIC50) is under 4.70.

As for HCC1937 (breast, adherent), the AUC was found to be 0.965 and the negative logarithm of the IC50 (pIC50) was under 4.70.

Regarding HCT-15 (large intestine, adherent), the AUC worked out at 0.973 and the pIC50 is under 4.70.

HCT-116 (large intestine, adherent): the AUC was 0.959 and the negative logarithm of the IC50 (pIC50) was under 4.70.

Take HT-29 (large intestine, adherent): the AUC came out at 0.901 and the pIC50 is under 4.70.

Regarding LoVo (large intestine, adherent), the AUC worked out at 0.987 and the pIC50 was under 4.70.

For MHH-ES-1 (Ewing sarcoma, adherent), the AUC is 0.602 and the pIC50 was 5.63.

With “NCI-H460 (large cell lung carcinoma, adherent)”, the AUC was 0.984 and the pIC50 is under 4.70.

For “NCI-H1568 (lung adenocarcinoma, adherent)”, the AUC worked out at 0.956 and the pIC50 is under 4.70.

As for “NCI-H1792 (lung adenocarcinoma, adherent)”, the AUC came to 0.965 and the pIC50 was under 4.70.

With OVCAR-8 (ovary, adherent), the AUC amounted to 0.954 and the negative-log IC50 (pIC50) was under 4.70.
